# Results reported in the BET-seq Pho4 binding data (Le et al. 2018).
# The other results are listed elsewhere or left out. Values were computed here from the reads of four pooled replicates and scatter widely.
# Molecular target: T1, Pho4 (S. cerevisiae) (UniProt P07270)
# T1 sequence: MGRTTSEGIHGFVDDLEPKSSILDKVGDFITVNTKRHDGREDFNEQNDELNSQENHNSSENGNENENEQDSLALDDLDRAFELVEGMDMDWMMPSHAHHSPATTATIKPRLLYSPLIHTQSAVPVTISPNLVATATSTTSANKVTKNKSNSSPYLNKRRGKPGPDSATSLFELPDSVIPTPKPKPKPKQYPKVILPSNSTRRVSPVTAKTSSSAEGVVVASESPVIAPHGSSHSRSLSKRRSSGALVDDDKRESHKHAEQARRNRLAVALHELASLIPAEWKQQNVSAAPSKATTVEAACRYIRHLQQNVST
# Test: relative binding free energy (BET-seq); higher = weaker binding
# Details: reference: library average
row,Sequence,relative binding free energy [kcal/mol]
1,TGATCCACGTGAGGTT,0.18
2,ACAGGCACGTGTTTTG,-0.09
3,GCCGGCACGTGTTGGT,-0.12
4,TGGAGCACGTGGACTT,0.05
5,GTTTACACGTGGCCGG,0.18
6,CTGGTCACGTGGCGAG,-0.01
7,ATTTTCACGTGTTAAT,0.31
8,GGTGACACGTGGAGTC,0.23
9,GATATCACGTGTTATG,0.21
10,TCTGGCACGTGTATTG,-0.15
11,ACTGTCACGTGGTTAA,0.13
12,TTATTCACGTGGGTCC,0.2
13,GGTTGCACGTGTCAGA,0.06
14,TAATTCACGTGGGCGA,0.1
15,GGTTGCACGTGGCTGA,0.01
16,TAAAGCACGTGATGGT,0.06
17,AGGGTCACGTGTTCTG,0.1
18,TGATGCACGTGAGTGA,0.21
19,TCGGTCACGTGGGTGC,0.03
20,GGTGACACGTGCGGTG,0.04
21,GTTGGCACGTGGTCGT,-0.04
22,CAGTGCACGTGATGTT,-0.04
23,TCAAGCACGTGTAGGG,-0.01

row,Sequence,relative binding free energy [kcal/mol]
1,TTGATCACGTGTTACG,0.29
2,GAGGCCACGTGGGGCG,-0.22
3,TGGGACACGTGGGCGG,-0.09
4,CAGTTCACGTGGTTAG,0.11
5,GATGCCACGTGGTGTT,-0.17
6,AATGGCACGTGGCGTC,0.05
7,TGTCGCACGTGGGAAG,-0.01
8,TAAAGCACGTGGAGTA,-0.02
9,TATGCCACGTGTTGAG,0.06
10,CGGGCCACGTGTGGGG,0.01
11,GTCATCACGTGGGGTT,0.08
12,AGATGCACGTGTGGCT,0.07
13,TTCGCCACGTGGGGTT,-0.18
14,TGCGGCACGTGGGTTC,-0.19
15,ATTATCACGTGATGGG,0.32
16,CTTTGCACGTGTTCTT,-0.13
17,CGACACACGTGGGTGG,-0.03
18,GCAATCACGTGGTGTG,0.14
19,TGAAACACGTGGGGTT,-0.02
20,GTAAACACGTGTCGTT,0.15
21,TATAACACGTGAGGCT,0.28
22,GAGTACACGTGGGGCT,0.06
23,TTAGACACGTGAGAGT,0.09

row,Sequence,relative binding free energy [kcal/mol]
1,ATGTGCACGTGGGTAG,-0.14
2,TTAAGCACGTGAGCGG,0.21
3,AAAATCACGTGTTGTG,0
4,TGCTACACGTGAGCGG,0.44
5,TTTGTCACGTGTTGGA,0.25
6,AGGGCCACGTGGAGTA,-0.24
7,GGTGACACGTGGATGA,0.13
8,GGGGTCACGTGGAGGG,0.14
9,GTTTGCACGTGAGCAG,0.3
10,TGTCACACGTGGAGTG,-0.06
11,TTTGGCACGTGTGCAC,-0.06
12,GTGTGCACGTGTCATT,0.04
13,TCTTTCACGTGATGAT,0.33
14,ATTTTCACGTGTCTCT,0.34
15,GATTTCACGTGGTGAA,0.14
16,ATTGTCACGTGTAATA,0.2
17,GTGTTCACGTGTGAGC,0.35
18,CTTTGCACGTGTTGTG,-0.07
19,GATTGCACGTGCGAGT,0.04
20,GTGATCACGTGCAGGT,0.1
21,GGGGTCACGTGGTCGT,0.03
22,TAGAGCACGTGTCAGG,-0.16
23,AACTGCACGTGGCGGG,-0.04

row,Sequence,relative binding free energy [kcal/mol]
1,TGCGACACGTGTTTAT,0.01
2,ATGGGCACGTGAGGTT,0.07
3,GTCGGCACGTGTAGGG,-0.06
4,GATATCACGTGCGTTT,0.35
5,TTTGGCACGTGTGTAG,-0.12
6,TGATGCACGTGGTTGT,0.01
7,GCCCGCACGTGGGGTG,-0.29
8,ATTAACACGTGTTCTT,0.04
9,GTTGTCACGTGTTGTA,0.05
10,AGCAGCACGTGTAGGT,-0.06
11,CCGGTCACGTGTTGTG,-0.04
12,TGTCTCACGTGAGCTT,0.32
13,CCGGGCACGTGGGGCG,-0.28
14,TTGAACACGTGGTGGA,0.04
15,TTCGTCACGTGGGCGC,0.06
16,TATGACACGTGGGGAT,-0.03
17,ATTGTCACGTGCCTGT,-0.13
18,TTAGGCACGTGGGCTT,-0.28
19,AGTTTCACGTGGGGTC,0.05
20,GTGGACACGTGGCGGG,0.01
21,CGTTGCACGTGGTATA,-0.15
22,TGATACACGTGTGGGG,0.12
23,GGAGTCACGTGGGGCG,0.03

row,Sequence,relative binding free energy [kcal/mol]
1,GTGCGCACGTGGGAGG,-0.15
2,ATATTCACGTGCGGTG,0.27
3,TTCGTCACGTGTTGAA,0.02
4,TGGAACACGTGTAGTC,0.15
5,CGAAGCACGTGGGAGT,-0.17
6,TTAGGCACGTGGTTAC,-0.18
7,TGGATCACGTGTGAAA,0.37
8,TTTGTCACGTGTACGG,0.06
9,TGCATCACGTGTGTAT,0.28
10,ATTGTCACGTGGCGCG,0.16
11,CTTTGCACGTGGTAGT,-0.09
12,CGGAGCACGTGGACGG,-0.01
13,TCAAGCACGTGTGTTA,0.02
14,TTTTGCACGTGCCGGT,-0.18
15,TTTGGCACGTGGTTCA,-0.25
16,TGATACACGTGCGGTT,0.03
17,ATGTTCACGTGTTAAT,0.3
18,TGGGGCACGTGATGCG,-0.03
19,AAGGTCACGTGGATAT,0.16
20,TGATTCACGTGTGGTC,0.3
21,TCTGGCACGTGTGAGA,-0.05
22,AGTCACACGTGATGTT,0.18
23,GTAAACACGTGTTAGG,0
